Data on 99 compounds can be found in article PMC6919601, “Identification of Plasmodium dipeptidyl aminopeptidase allosteric inhibitors by high throughput screening” (PLoS ONE, 2019).

Several values for one entry are separate records, joined by “and”; a condition that tells them apart may be missing. Equal entries are not always repeated. The campaign covered roughly 110,000 compounds. About 230 (0.21%) showed an effect of 50% or more. The list shows a part of the results.
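Further: 30 min substrate incubation versus DMSO and 10 µM JCP410 controls.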

The target in this experiment is DPAP1 (Plasmodium falciparum, UniProt Q8IIJ9). Put plainly: primary screen, percent inhibition; read by cleavage of a fluorogenic dipeptide substrate; higher = more effect of the substance. Set-up: species or system P. falciparum D10 trophozoite lysates; single well.
Chain of DPAP1 (Q8IIJ9 whole entry, looked up): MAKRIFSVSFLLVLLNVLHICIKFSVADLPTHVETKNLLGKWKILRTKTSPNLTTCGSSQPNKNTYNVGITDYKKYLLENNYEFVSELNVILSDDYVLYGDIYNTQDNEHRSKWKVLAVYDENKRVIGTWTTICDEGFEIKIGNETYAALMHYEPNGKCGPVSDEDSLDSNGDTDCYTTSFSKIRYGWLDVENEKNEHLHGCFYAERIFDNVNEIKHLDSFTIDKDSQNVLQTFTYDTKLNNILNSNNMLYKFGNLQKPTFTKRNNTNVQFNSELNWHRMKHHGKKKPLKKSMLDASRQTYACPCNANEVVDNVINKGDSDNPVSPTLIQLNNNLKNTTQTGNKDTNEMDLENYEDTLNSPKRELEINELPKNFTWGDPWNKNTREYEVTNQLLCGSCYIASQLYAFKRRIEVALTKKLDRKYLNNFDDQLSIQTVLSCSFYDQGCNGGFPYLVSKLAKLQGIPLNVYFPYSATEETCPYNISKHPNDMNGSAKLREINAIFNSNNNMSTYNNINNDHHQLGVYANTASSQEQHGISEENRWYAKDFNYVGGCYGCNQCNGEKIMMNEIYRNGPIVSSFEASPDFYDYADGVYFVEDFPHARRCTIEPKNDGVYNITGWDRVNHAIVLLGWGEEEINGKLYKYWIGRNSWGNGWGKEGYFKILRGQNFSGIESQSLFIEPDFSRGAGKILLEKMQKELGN
For the compound `COc1ccccc1-c1c(C)nn2c(SCC(=O)N3CCN(C)CC3)cc(C)nc12`, the “% Inhibition @ 10 uM” value is 3.29%.

Consider `Clc1ccc(-n2ncnc2-c2ccccn2)cc1`, for which the “% Inhibition @ 10 uM” value came out at 2.05%. The value for `C[C@@H](CC(NC(=O)c1ccc(-c2ccccc2Cl)cc1)C(=O)N[C@H]1CCOC1(O)c1nc2ccccc2o1)c1ccccc1` (stereo partly drawn) was -0.207%; that for `O=C(C1CCCO1)N1CCN(c2cccc(C(F)(F)F)c2)CC1` (stereo not drawn) was -3.18%.

In the case of `COc1ccc(/C=C2/SC(N3CCCCC3)=NC2=O)cc1`, the “% Inhibition @ 10 uM” value stood at 3.69%. The value for `Cn1c(=O)c2cnc(-c3ccccc3)nc2n(C)c1=O` was -3.53%; that for `O=C(Cc1ccccc1)NCC1CCCO1` (stereo not drawn) was 0.273%. With `O=C(/C=C/c1ccc2ccccc2n1)c1cccnc1` the figure was -0.292%. With `CCCCCn1c(CCCNC(=O)c2ccco2)nc2ccccc21` the figure was -4.82%.

In the case of `COCCN1C(=O)c2[nH]nc(-c3ccccc3O)c2C1c1cccc(Br)c1` (stereo not drawn), the “% Inhibition @ 10 uM” value stood at 2.02%. As for `CN(C)CCCN(C(=O)CN1C(=O)CCC1=O)c1nc2c(F)cc(F)cc2s1`, the “% Inhibition @ 10 uM” value was determined as 3.48%. With `Cc1ccc(NC(=O)c2sc3nc(N)c(C#N)cc3c2N)cc1` the figure was -2.81%; with `Cc1ccc2oc(=O)c3cc(C(=O)N(C)Cc4ccccc4)sc3c2c1`, 4.68%. With `Cc1ccc2onc(CNC(=O)NCC3CCCO3)c2c1` (stereo not drawn) the figure was 0.0147%. The value for `O=C1OC(c2ccc(Br)cc2)=N/C1=C\c1coc2c(Cl)cc(Cl)cc2c1=O` was 7.89%. In the case of `CC1(C)CCCC(C)(C)N1CC(O)COc1ccccc1` (stereo not drawn), the “% Inhibition @ 10 uM” value was -8.28%. With `CC(=O)c1ccc(NC(=O)c2cc3nc(-c4ccc5c(c4)OCO5)cc(C(F)(F)F)n3n2)cc1` the figure was -5.98%; with `CC(C)C1Cc2c(sc3nc(SCc4ccccc4)nc(N)c23)CO1` (stereo not drawn), -1.52%.

Take `CC1CCN(S(=O)(=O)N2CCC(C(=O)NCCCN3CCCC3)CC2)CC1`: the “% Inhibition @ 10 uM” value is -3.12%. The value for `COc1ccc2c(CNCCc3ccccc3)c(C(=O)O)[nH]c2c1` was -5.37%; that for `CCOC(=O)c1c(NC(=O)c2c(Br)cnn2C)c(C#N)nn1-c1ccccc1` was -3.41%. With `Cc1nc2nc(-c3ccc(Cl)cc3Cl)nn2c(C)c1CCC(=O)NCc1ccco1` the figure was -6.09%.

Turning to `COc1ccc(-c2ncnn2-c2ccncc2)cc1`, the “% Inhibition @ 10 uM” value is on record as -0.0953%.

As for `CN(C)c1nc(N(C)C)nc(N2CC(=O)N(c3ccccc3)C2=N)n1`, the “% Inhibition @ 10 uM” value is listed as -7.31%. On to `C=C(Br)C[C@H](NC(=O)OC(C)(C)C)C(=O)NCC#N`, for which the “% Inhibition @ 10 uM” value is reported as -3.04%. The value for `Cc1cccc(NC(=O)CC(=O)c2ccc([N+](=O)[O-])cc2)c1` was -11.1%; that for `C=CCO/C(O)=C1/C(C)=Nc2ncnn2C1c1ccc(OC)c(OC)c1` (stereo not drawn) was 3.32%; that for `O=C(O)CCC(=O)Nc1ccc(N2CCN(c3ccccc3)CC2)cc1` was 0.245%. The value for `CCc1cccc(NC(=O)c2c(-c3ccccc3)noc2C)c1` was 1.57%. As to `Cc1cc(C)cc(-n2nnc(-c3nc(-c4cccnc4)no3)c2N)c1`, the “% Inhibition @ 10 uM” value came out at 1.4%. With `c1cnc2c(Oc3ncnc4sc5c(c34)CCCC5)cccc2c1` the figure was 2.86%; with `Cc1cccnc1Nc1nc(-c2ccncc2)cs1`, -1.69%; with `O=S(=O)(NCCN1CCCC1)c1cccc2nsnc12`, 1.9%. The value for `COc1ccc(S(=O)(=O)N(CC(=O)Nc2ccccc2C(N)=O)c2ccccc2)cc1` was -4.61% and -4.12%.

Regarding `CCC(C)Sc1nc(O)cc(=O)n1C` (stereo not drawn), the “% Inhibition @ 10 uM” value is 1.91%.

Regarding `COC(=O)/C(=C\c1c[nH]c2ccccc12)NC(C)=O`, the “% Inhibition @ 10 uM” value is on record as -3.58%. The value for `Oc1ccc(Nc2ccc(O)cc2)cc1` was -0.999%. With `COc1cc(OC)cc(-n2cc(-c3cc4ccccc4oc3=O)nc2S)c1` the figure was 46.4%; with `CCOC(=O)N1CCN(C(=O)CSc2nnc(CNC(=O)c3ccc(OC)cc3)o2)CC1`, 4.36%.

With `C/C(=C1\C(=O)N(c2nc3ccccc3s2)N=C1C(F)(F)F)N1CCC2CCCN2C1` (stereo not drawn), the “% Inhibition @ 10 uM” value was 4.32%. On to `CC(=O)Nc1ccc(S(=O)(=O)Nc2c(C)cccc2C(C)C)cc1`, for which the “% Inhibition @ 10 uM” value is reported as -1.61%.

Consider `CC1CCCC(N2CCCN(C)CC2)C1` (stereo not drawn), for which the “% Inhibition @ 10 uM” value was determined as 2.1%. With `O=C1c2ccccc2C(=O)C1(c1ccccc1)N1CCc2ccccc2C1` the figure was 4.36%. With `COc1ccccc1NCc1c(C#N)c2ccccc2n1C` the figure was -0.864%; with `O=C1c2cc(S(=O)(=O)NCCCO)ccc2-c2ccc(S(=O)(=O)NCCCO)cc21`, -1.47%; with `CCOc1ccc(Br)cc1C1C(C(C)=O)=C(C)Nc2nnnn21` (stereo not drawn), -5.41%. With `Cc1ccc(-c2c(NCCc3ccc(Cl)cc3)c(=O)c2=O)cc1` the figure was 1.97%. For the compound `O=C1CCCC(O)=C1Sc1ccccc1C(=O)O`, the “% Inhibition @ 10 uM” value worked out at 5.07%. With `Cc1ccc(C(=O)Nc2cccc(OCC(=O)c3ccccc3)c2)cc1` the figure was -1.11%.

On to `Cc1ccc(-c2ccc(/C=C3\NC(=O)NC3=O)o2)c(Br)c1`, for which the “% Inhibition @ 10 uM” value was 4.74%. With `Cc1cc(C)nc(/N=C(\N)Nc2ccccc2O)n1` the figure was 0.727%.

Turning to `O=C(NCc1ccc(Cl)cc1Cl)C(=O)NC1CCCCC1`, the “% Inhibition @ 10 uM” value came to 6.17%. With `O=C(NCc1ccc(F)cc1)c1nc(O)c2nnn(Cc3ccc4c(c3)OCO4)c2n1` the figure was -5.51%; with `O=C1/C(=C\c2cccnc2)S(=O)(=O)c2ccccc21`, -0.105%.

As for `CN(C)c1ccc(CN2CCN(c3ccccc3)CC2)cc1`, the “% Inhibition @ 10 uM” value is -3.56%. With `COc1ccc(N2C(=O)CC(N3CCN(C(=O)c4ccccc4F)CC3)C2=O)cc1` (stereo not drawn), the “% Inhibition @ 10 uM” value was -3.04%. The value for `CCCS(=O)(=O)N1CCC(C(=O)NCc2ccccc2Cl)CC1` was -1.79%. The value for `COc1ccccc1CNC(=O)Cn1ncn2c(cc3ccccc32)c1=O` was 1.68%; that for `Cc1onc(-c2c(Cl)cccc2Cl)c1C(=O)NCC1CCCO1` (stereo not drawn) was 0.177%; that for `COc1ccc(N(CC(=O)Nc2ccc(NC(C)=O)cc2)S(=O)(=O)c2ccccc2)cc1Cl` was 0.889%.

On to `CCOC(=O)c1sc(NC(=O)c2ccc(S(=O)(=O)N3CC(C)CC(C)C3)cc2)nc1C` (stereo not drawn), for which the “% Inhibition @ 10 uM” value is given as 6.23%. The value for `Cc1cc(C(=O)NC2CCCCC2)on1` was -5.25%. The value for `CC(C)=CCc1c(O)c2ccccc2n(C)c1=O` was -0.988%; that for `c1nc(NCCc2ccsc2)c2nc3n(c2n1)CCCCC3` was -6.33%. With `O=C(NC1CC1)c1ccc2nc(-c3ccccc3)c(-c3ccccc3)nc2c1` the figure was -0.945%. For `CCN1C(=O)/C(=C/c2ccc(Cl)c(Cl)c2)N=C1SCC(=O)NCc1ccco1`, the “% Inhibition @ 10 uM” value was found to be 2.68%. `CCOC(=O)c1sc(NC(=O)CSC2=NC(=O)C(Cc3ccccc3)C(=O)N2)nc1C` (stereo not drawn): the “% Inhibition @ 10 uM” value is recorded as -3.14%. With `CCOC(=O)c1[nH]nc(C(=O)c2ccccc2)c1-c1ccccc1` the figure was 2.38%; with `COc1ccc2cc(S(=O)(=O)c3ccc(C(C)C)cc3)c(=O)oc2c1`, 3.75%. `C=CC1CN2CCC1CC2[C@@H](OC(=O)CCC(=O)O)c1ccnc2ccccc12` (stereo partly drawn): the “% Inhibition @ 10 uM” value is reported as 4.54%. The value for `O=C(CSc1nc2c(sc3ccccc32)c(=O)n1CCO)NCC1CCCO1` (stereo not drawn) was 2.89%; that for `CN1CCC/C1=C/C(=O)c1ccc([N+](=O)[O-])cc1` was -6.07%; that for `COc1ccccc1NS(=O)(=O)c1cccc(C(=O)Nc2ccc(Br)cc2)c1` was -1.04%. With `Cc1cccc(NC(=O)c2c(O)nc3c(c2O)CCCC3)n1` the figure was -0.458%; with `Cc1onc(-c2ccccc2Cl)c1C(=O)N1CCCC1`, 0.916%. With `CCOC(=O)N1CCC(N2Cc3cccc(C(=O)O)c3C2=O)CC1`, the “% Inhibition @ 10 uM” value was 0.494%. For the compound `O=c1/c(=C/c2cccnc2)sc2nc(-c3ccc(Cl)cc3Cl)nn12`, the “% Inhibition @ 10 uM” value is given as -1.17%.

Take `CCOC(=O)c1cc(S(=O)(=O)NC(CC)c2cccs2)cn1C` (stereo not drawn): the “% Inhibition @ 10 uM” value is reported as 0.655%. The value for `O=C1C2C(C(=O)N1c1ccc(Oc3ccc(Br)cc3)cc1)C1(Br)c3ccccc3C2(Br)c2ccccc21` (stereo not drawn) was -4.4%; that for `CC(=O)N(C)c1ccc(NC(=O)C(C)Oc2ccc(C)cc2)cc1` (stereo not drawn) was -1.94%; that for `Clc1ccc(OCCCCCN2CCNCC2)c(Cl)c1` was 2.74%. With `Cc1nnc(NC(=O)C2CCCCC2)s1` the figure was -2.81%; with `Cc1nccn1S(=O)(=O)c1ccc(Cl)cc1`, -6.08%. The value for `CC(=O)Nc1ccc(NC(=O)Cn2ncc3c4ccccc4nc-3c2O)cn1` was -6.37%. For the compound `NC(=O)c1c(NC(=O)C2CCCCC2C(=O)O)sc2c1CCCCC2` (stereo not drawn), the “% Inhibition @ 10 uM” value is on record as 2.92%.

As for `Cc1nn(C)cc1CN(C)C(=O)c1nn2c(C(F)(F)F)cc(-c3cccs3)nc2c1Cl`, the “% Inhibition @ 10 uM” value is recorded as -1.98%. With `CC1CN(C(=O)c2ccc(NS(=O)(=O)c3ccc(C(C)(C)C)cc3)cc2)CC(C)O1` (stereo not drawn) the figure was -3.41%. With `CC(CNC(=O)COCc1cc(-c2ccc(F)cc2)on1)c1ccccc1` (stereo not drawn), the “% Inhibition @ 10 uM” value stood at 1.08%.

In the case of `Cc1cc(Cl)ccc1OC(C)C(=O)n1cnc2ccccc21` (stereo not drawn), the “% Inhibition @ 10 uM” value was -6.7%.

Regarding `COc1ccc(S(=O)(=O)c2cc3cc(Br)cc(Br)c3oc2=O)cc1`, the “% Inhibition @ 10 uM” value is 2.12%.

Take `CC1(C)C(N2CCOCC2)C(c2ccccc2)S1(=O)=O` (stereo not drawn): the “% Inhibition @ 10 uM” value was -0.999%. With `Cc1cccc(NCc2n[nH]c(SCC(=O)Nc3ccc(Br)cc3)n2)c1` the figure was 2.36%.

`CC1(C)CC(=O)C2=C(C1)N(CCc1ccccc1)C(=O)NC2(C(F)(F)F)C(F)(F)F`: the “% Inhibition @ 10 uM” value turned out to be 0.221%. The value for `Cc1cc(C)cc(C(=O)N(Cc2nc(-c3ccccc3)no2)C(C)C)c1` was -6.56%; that for `CCCc1cc(N2CCN(C3CCCCC3)CC2)n2cnnc2n1` was 3.27%. With `O=C(NC1CC1)c1ccc(CS(=O)(=O)Cc2ccc(Cl)cc2)o1` the figure was 2.05%; with `COc1ccc(-c2c3c(nc4ncnn24)-c2ccccc2C3=O)cc1`, 1.35%. With `O=C(c1ccccc1)N1c2ccccc2N=C2CC(c3ccco3)CC(O)=C2C1c1ccco1` (stereo not drawn) the figure was -2.45%. Turning to `Cc1ccc(CS(=O)(=O)CCC(=O)N2CCC3(CC2)OCCO3)cc1`, the “% Inhibition @ 10 uM” value is reported as -2.99%.
